{"source": "PubChem BioAssay AID1508623", "about": "(National Center for Advancing Translational Sciences (NCATS), 2021)", "note": "In all, about 48,000 compounds went through this assay and about 450 (0.94%) were called active. The inconclusive results got no clear call from the source; some entries with a clear call stand among them for comparison. The call rests on the fitted dose curve; in most records, active means well fitted inhibition curve with a large enough effect; inconclusive means small, poorly fitted or top-dose-only effect; inactive means no such curve, though single readings can be large or run the other way. Where the call is inconclusive, the potency comes from a doubtful curve fit. Potency means the concentration at half of the fitted maximal effect; tags describe the fitted curve by direction and shape."}
{"experiment": "Primary qHTS for Identification of Small Molecule Inhibitors of Huntingtin Promoter Activity; further: nearly all actives have a fitted effect of over 50% in size", "settings": "HEK293 HTT promoter firefly luciferase reporter (activity 0% = vehicle and -100% = no light), 24 h; activity change, negative = inhibition: at 57.5 µM (top of the series)", "outline": "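Firefly luciferase signal from promoter-reporter HEK293 cells was scaled between vehicle (0%) and zero RLU (-100%). Compounds were tested at final concentrations of up to 57.5 uM over 24 h at 37 degrees C. PTC124 at 50 uM final served as control inhibitor.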"}
{"smiles": "COc1ccc(Nc2c3c(nc4ccccc24)CCC3)cc1Cl", "Potency": "inconclusive: 15.8 µM [inhibitor, partial curve, poor fit]"}
{"smiles": "CCOc1ccc(NC(=O)Cn2c(=O)n(Cc3ccc4c(c3)OCO4)c(=O)c3ccc(C(=O)NC4CCCCC4)cc32)cc1", "activity change, negative = inhibition": "inactive: -14.7%"}
{"smiles": "COc1ccc(OC)c(CNC(=O)Nc2cn(CC(C)C)c(=O)c3ccccc23)c1", "activity change, negative = inhibition": "inactive: -25.6%"}
{"smiles": "Cc1ccc(CNC(=O)Nc2cc(C(=O)NCc3cccc(F)c3)ccc2N2CCCC2)cc1", "Potency": "inconclusive: 7.94 µM [inhibitor, partial curve]"}
{"smiles": "Fc1ccccc1-c1nc(N2CCN(c3cccc(Cl)c3)CC2)c2ccccc2n1", "Potency": "inconclusive: 35.5 µM [inhibitor, partial curve, poor fit]"}
{"smiles": "CCOC(=O)N1CCC(n2c(=O)[nH]c3cc(Cl)ccc32)CC1", "Potency": "inconclusive: 22.4 µM [inhibitor, single point]"}
{"smiles": "Cc1ccc(-c2noc(CCC(=O)N(C)c3ccccc3F)n2)cc1", "Potency": "inconclusive: 20 µM [inhibitor, single point]"}
{"smiles": "Cc1ccc(-n2ncc3c(Nc4cccc(Cl)c4)ncnc32)c(C)c1", "activity change, negative = inhibition": "inactive: -13.8%"}
{"smiles": "O=C(Cn1nnnc1-c1ccccc1F)Nc1ccc(OC(F)(F)F)cc1", "activity change, negative = inhibition": "inactive: -4.29%"}
{"smiles": "COc1cc(NC(=O)C2=CC(c3ccc(F)cc3)=NS(=O)(=O)N2C)cc(OC)c1OC", "Potency": "inconclusive: 35.5 µM [inhibitor, partial curve, poor fit]"}
{"smiles": "CCN(CC)c1cc(C)c2cc(NC(=O)/C=C/c3cc(OC)c(OC)c(OC)c3)ccc2n1", "activity change, negative = inhibition": "inactive: -8.05%"}
{"smiles": "O=C(CSc1nccn1Cc1ccc(F)cc1)Nc1nc2ccccc2s1", "Potency": "inconclusive: 39.8 µM [inhibitor, single point]"}
{"smiles": "CCN(Cc1ccccc1)C(=O)C1CCN(S(=O)(=O)c2ccc3c(c2)CCCN3C(C)=O)CC1", "Potency": "inconclusive: 28.2 µM [inhibitor, partial curve, poor fit]"}
{"smiles": "CCc1cccc(-n2nnc(-c3nsc(NC(=O)c4cccc(OC)c4)n3)c2C)c1", "Potency": "inconclusive: 12.6 µM [inhibitor, partial curve, poor fit]"}
{"smiles": "Cc1cccc(CC(=O)N2CC(=O)Nc3ccc(Br)cc3C2c2ccc(F)cc2)c1", "note": "(stereo not drawn)", "Potency": "inconclusive: 39.8 µM [inhibitor, single point]"}
{"smiles": "CC(C)N(C(=O)CSc1cn(CC(=O)N2CCCCCC2)c2ccccc12)C(C)C", "Potency": "inconclusive: 31.6 µM [inhibitor, single point]"}
{"smiles": "COc1ccc(Br)cc1S(=O)(=O)Nc1cc(-c2cn3ccccc3n2)ccc1C", "Potency": "inconclusive: 31.6 µM [inhibitor, single point]"}
{"smiles": "Cc1ccc(C2C=C(c3ccccc3)Nc3nc(NS(=O)(=O)c4ccccc4)nn32)cc1", "note": "(stereo not drawn)", "activity change, negative = inhibition": "inactive: -5.81%"}
{"smiles": "CN(Cc1ccccc1)C(=O)c1ccc(CSc2nc3cccnc3n2Cc2ccccc2F)cc1", "Potency": "inconclusive: 39.8 µM [inhibitor, single point]"}
{"smiles": "COc1ccc(NC(=O)c2ccco2)cc1NC(=O)C(C)(C)Oc1ccc(Cl)cc1", "Potency": "inconclusive: 31.6 µM [inhibitor, partial curve, poor fit]"}
{"smiles": "O=C(NCC(c1cccs1)S(=O)(=O)c1ccccc1)c1ccc(C(F)(F)F)cc1", "note": "(stereo not drawn)", "Potency": "inconclusive: 35.5 µM [inhibitor, partial curve]"}
{"smiles": "Cc1cc(Cl)ccc1OCC(=O)N(Cc1ccco1)Cc1ccccc1F", "Potency": "inconclusive: 22.4 µM [inhibitor, single point]"}
{"smiles": "COc1ccc(NC(=O)C2CCCN(c3ncnc4onc(C)c34)C2)cc1OC", "note": "(stereo not drawn)", "Potency": "inconclusive: 22.4 µM [inhibitor, single point]"}
{"smiles": "CCOc1ccc(OCC)c(NC(=O)c2nnn(CC(=O)Nc3cc(Cl)ccc3OC)c2N)c1", "Potency": "inconclusive: 28.2 µM [inhibitor, single point]"}
{"smiles": "COc1ccc(C(=O)c2sc3nc4c(c(C(F)(F)F)c3c2N)CN(C(C)=O)CC4)cc1OC", "Potency": "inconclusive: 39.8 µM [inhibitor, single point]"}
{"smiles": "CCOc1ccccc1NC(=O)Nc1nnc(N2CCCC(C)C2)s1", "note": "(stereo not drawn)", "Potency": "inconclusive: 31.6 µM [inhibitor, single point]"}
{"smiles": "CCN(Cc1ccccc1)c1ncnc2c1cnn2-c1ccc(F)cc1", "activity change, negative = inhibition": "inactive: 27.6%"}
{"smiles": "CCOc1ccc(CNC(=O)C2CCN(C(=O)c3ccc(-n4ccc5ccccc54)s3)CC2)cc1", "Potency": "inconclusive: 39.8 µM [inhibitor, single point]"}
{"smiles": "Cc1ccc(C)c(N2CCN(S(=O)(=O)c3c(C(=O)N4CCC(C)CC4)c(C)n(C)c3C)CC2)c1", "Potency": "inconclusive: 25.1 µM [inhibitor, partial curve, poor fit]"}
{"smiles": "CCOC(=O)c1cc2c(=O)n3ccccc3nc2n(C)c1=NC(=O)c1c(-c2c(F)cccc2Cl)noc1C", "activity change, negative = inhibition": "inactive: -8.42%"}
{"smiles": "NC(N)=NN=C(/C=C/c1ccc([N+](=O)[O-])o1)/C=C/c1ccc([N+](=O)[O-])o1", "Potency": "inconclusive: 7.94 µM [inhibitor, full curve, poor fit]"}
{"smiles": "COc1ccccc1CNC(=O)C(=O)NCC(c1ccco1)S(=O)(=O)c1ccc(C)cc1", "note": "(stereo not drawn)", "Potency": "inconclusive: 39.8 µM [inhibitor, single point]"}
{"smiles": "O=C(CSc1nccn1Cc1ccc(Cl)cc1)Nc1nc2ccccc2s1", "Potency": "inconclusive: 25.1 µM [inhibitor, single point]"}
{"smiles": "Cc1ccccc1CCNC(=O)c1ccc(Cn2c(=O)c3cccn3c3cccnc32)cc1", "Potency": "inconclusive: 31.6 µM [inhibitor, single point]"}
{"smiles": "Cc1ccc(C)c(N2CCN(C(=O)c3cc(C)nc4c3c(C)nn4-c3ccccc3)CC2)c1", "Potency": "inconclusive: 20 µM [inhibitor, single point]"}
{"smiles": "COc1ccc(F)c(F)c1C(=O)c1cnc(NC2CCN(S(C)(=O)=O)CC2)nc1N", "Potency": "inconclusive: 6.11 µM [inhibitor, full curve]"}
{"smiles": "COc1ccc(N2CCN(S(=O)(=O)c3ccc4c(c3)C(C(C)C)C(=O)N4)CC2)cc1", "note": "(stereo not drawn)", "Potency": "inconclusive: 20 µM [inhibitor, partial curve, poor fit]"}
{"smiles": "Cc1nc2cc(-c3cccc(F)c3)nn2c(C)c1CCC(=O)NCCc1ccccc1", "Potency": "inconclusive: 10 µM [inhibitor, partial curve]"}
{"smiles": "Cc1ccc(NC(=O)c2ccc(=O)n(CC(=O)Nc3ccccc3)n2)cc1", "Potency": "inconclusive: 0.251 µM [inhibitor, full curve, poor fit]"}
{"smiles": "Cn1c(=O)c2sccc2n2c(CCCC(=O)Nc3ccc(Oc4ccccc4)cc3)nnc12", "Potency": "inconclusive: 31.6 µM [inhibitor, single point]"}
{"smiles": "Cc1ccc(C)c(NC(=O)C2CCN(S(=O)(=O)c3c(C)noc3/C=C/c3cccs3)CC2)c1", "Potency": "inconclusive: 39.8 µM [inhibitor, single point]"}
{"smiles": "COc1ccc(Cl)cc1NC(=O)CSc1nccn1-c1ccc(Cl)cc1", "Potency": "inconclusive: 39.8 µM [inhibitor, single point]"}
{"smiles": "COc1ccc(S(=O)(=O)N2Cc3ccccc3CC2C(=O)Nc2cc(Cl)ccc2Cl)cc1", "note": "(stereo not drawn)", "Potency": "inconclusive: 3.98 µM [inhibitor, full curve, poor fit]"}
{"smiles": "COc1ccc(C(=O)NCCn2cc(SCc3ccc(C(F)(F)F)cc3)c3ccccc32)cc1OC", "Potency": "inconclusive: 20 µM [inhibitor, partial curve, poor fit]"}
{"smiles": "O=C(Nc1ccc2c(c1)CCCN2C(=O)c1cccs1)c1ccc(F)c(F)c1", "Potency": "inconclusive: 28.2 µM [inhibitor, partial curve]"}
{"smiles": "COc1ccc(NC(=O)CSc2oc(-c3cccs3)nc2S(=O)(=O)c2ccccc2)c(OC)c1", "Potency": "inconclusive: 17.8 µM [inhibitor, partial curve, poor fit]"}
{"smiles": "Cc1cccc(CNC(=O)c2cc3cc(S(=O)(=O)N4CCCCC4)ccc3n2C)c1", "Potency": "inconclusive: 14.1 µM [inhibitor, partial curve, poor fit]"}
{"smiles": "Cc1ccc(CCNC(=O)Cn2c(-c3cccs3)cc3ccccc32)cc1", "Potency": "inconclusive: 28.2 µM [inhibitor, single point]"}
{"smiles": "CCc1cccc(NC(=O)CSc2ncccc2C(=O)Oc2ccccc2Cl)c1", "Potency": "inconclusive: 22.4 µM [inhibitor, partial curve, poor fit]"}
{"smiles": "COC(=O)c1cc(S(=O)(=O)NCC2CCN(Cc3ccc(C)cc3)CC2)c[nH]1", "activity change, negative = inhibition": "inactive: -27.2%"}
{"smiles": "CC(=O)Nc1cc(-c2nc3ccccc3s2)ccc1C", "activity change, negative = inhibition": "inactive: 63.6%"}
{"smiles": "CCn1c(-c2ccc(S(=O)(=O)N3CCOCC3)cc2)csc1=Nc1ccc(C)c(Cl)c1", "activity change, negative = inhibition": "inactive: -12.2%"}
{"smiles": "CCOC(=O)c1ccc(CN(Cc2ccccc2C)S(=O)(=O)c2ccc(C(C)(C)C)cc2)cc1", "Potency": "inconclusive: 39.8 µM [inhibitor, partial curve, poor fit]"}
{"smiles": "COc1ccc(C)cc1NC(=O)c1ccc2c(c1)CCN2S(=O)(=O)c1ccc(Cl)cc1", "Potency": "inconclusive: 12.6 µM [inhibitor, partial curve, poor fit]"}
{"smiles": "Cc1ccc(C)c(CN2CCC(CNC(=O)c3cc4ccc5cccnc5c4[nH]3)CC2)c1", "Potency": "inconclusive: 10 µM [inhibitor, partial curve, poor fit]"}
{"smiles": "CCC1CN(C(=O)N2CCC(C(=O)NCc3ccccc3C)CC2)c2ccccc2O1", "note": "(stereo not drawn)", "Potency": "inconclusive: 20 µM [inhibitor, single point]"}
{"smiles": "O=C(NCc1ccccc1)c1ccc(CSc2nc3cccnc3n2Cc2ccccc2F)cc1", "Potency": "inconclusive: 35.5 µM [inhibitor, partial curve, poor fit]"}
{"smiles": "COc1ccc(OCC(=O)Nc2cccc(-c3nc4ccccc4s3)c2C)cc1", "Potency": "inconclusive: 31.6 µM [inhibitor, partial curve, poor fit]"}
